# According to the supplement of paper PMC8728848:
# Some of the results follow.
# How the values were obtained:
# Experiment in all cases: glycan array binding signal (z-score within array); higher = stronger binding
# Details in all cases: glycan notation: IUPAC condensed, linker removed
# [1] = target: Neu5Ac(a2-3)Gal(b1-4)GlcNAc(b1-3)[Neu5Ac(a2-3)Gal(b1-4)GlcNAc(b1-6)]GalNAc
# Outline: (§1)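 Arrays were curated from the Consortium for Functional Glycomics database, 3228 in total, and kept only where the protein sequence was available. Binding is expressed as a within-array Z-score. This score was averaged across arrays of the same protein sequence at different concentrations or buffers and across linkers, and negative values can be read as non-binding.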
# [2] = target: Neu5Ac(a2-3)Gal(b1-4)GlcNAc(b1-6)GalNAc
# Outline: as §1
# [3] = target: Neu5Ac(a2-3)Gal(b1-4)GlcNAc(b1-6)[Gal(b1-3)]GalNAc
# Outline: as §1
# [4] = target: Neu5Ac(a2-3)Gal(b1-4)GlcNAc(b1-6)[Neu5Ac(a2-3)Gal(b1-3)]GalNAc
# Outline: as §1
# [5] = target: Neu5Ac(a2-3)Gal(b1-4)GlcNAc6S
# Outline: as §1
# [6] = target: Neu5Ac(a2-3)Gal(b1-4)[Fuc(a1-3)]GlcNAc
# Outline: as §1
# [7] = target: Neu5Ac(a2-3)Gal(b1-4)[Fuc(a1-3)]GlcNAc(b1-2)Man
# Outline: as §1
# [8] = target: Neu5Ac(a2-3)Gal(b1-4)[Fuc(a1-3)]GlcNAc(b1-3)Gal
# Outline: as §1
# [9] = target: Neu5Ac(a2-3)Gal(b1-4)[Fuc(a1-3)]GlcNAc(b1-3)Gal(b1-4)GlcNAc
# Outline: as §1
# [10] = target: Neu5Ac(a2-3)Gal(b1-4)[Fuc(a1-3)]GlcNAc(b1-3)Gal(b1-4)[Fuc(a1-3)]GlcNAc(b1-3)Gal(b1-4)[Fuc(a1-3)]GlcNAc
# Outline: as §1
# [11] = target: Neu5Ac(a2-3)Gal(b1-4)[Fuc(a1-3)]GlcNAc(b1-3)GalNAc
# Outline: as §1
# [12] = target: Neu5Ac(a2-3)Gal(b1-4)[Fuc(a1-3)]GlcNAc(b1-6)[Gal(b1-3)]GalNAc
# Outline: as §1
# [13] = target: Neu5Ac(a2-3)Gal(b1-4)[Fuc(a1-3)]GlcNAc(b1-6)[Neu5Ac(a2-3)Gal(b1-3)]GalNAc
# Outline: as §1
# [14] = target: Neu5Ac(a2-3)Gal(b1-4)[Fuc(a1-3)]GlcNAc6S
# Outline: as §1
# [15] = target: Neu5Ac(a2-3)Gal6S(b1-4)GlcNAc
# Outline: as §1
# [16] = target: Neu5Ac(a2-3)Gal6S(b1-4)[Fuc(a1-3)]GlcNAc
# Outline: as §1
# Neu5Ac(a2-3)GalNAc = target: Neu5Ac(a2-3)GalNAc
# Outline: as §1
# [17] = target: Neu5Ac(a2-3)GalNAc(b1-4)GlcNAc
# Outline: as §1
# [18] = target: Neu5Ac(a2-3)[GalNAc(b1-4)]Gal(b1-4)Glc
# Outline: as §1
# [19] = target: Neu5Ac(a2-3)[GalNAc(b1-4)]Gal(b1-4)GlcNAc
# Outline: as §1
# [20] = target: Neu5Ac(a2-3)[GalNAc(b1-4)]Gal(b1-4)GlcNAc(b1-3)GalNAc
# Outline: as §1
# [21] = target: Neu5Ac(a2-3)[Neu5Ac(a2-6)]GalNAc
# Outline: as §1
# Neu5Ac(a2-6)Gal = target: Neu5Ac(a2-6)Gal
# Outline: as §1
# [22] = target: Neu5Ac(a2-6)Gal(b1-3)GlcNAc(b1-3)[Gal(b1-4)GlcNAc(b1-6)]Gal(b1-4)Glc
# Outline: as §1
# Neu5Ac(a2-6)Gal(b1-4)Glc = target: Neu5Ac(a2-6)Gal(b1-4)Glc
# Outline: as §1
# [23] = target: Neu5Ac(a2-6)Gal(b1-4)GlcNAc
# Outline: as §1
# [24] = target: Neu5Ac(a2-6)Gal(b1-4)GlcNAc(b1-2)Man
# Outline: as §1
# [25] = target: Neu5Ac(a2-6)Gal(b1-4)GlcNAc(b1-2)Man(a1-3)Man(b1-4)GlcNAc(b1-4)GlcNAc
# Outline: as §1
# [26] = target: Neu5Ac(a2-6)Gal(b1-4)GlcNAc(b1-2)Man(a1-3)[Gal(b1-4)GlcNAc(b1-2)Man(a1-6)]Man(b1-4)GlcNAc(b1-4)GlcNAc
# Outline: as §1
# [27] = target: Neu5Ac(a2-6)Gal(b1-4)GlcNAc(b1-2)Man(a1-3)[GlcNAc(b1-2)Man(a1-6)]Man(b1-4)GlcNAc(b1-4)GlcNAc
# Outline: as §1
# [28] = target: Neu5Ac(a2-6)Gal(b1-4)GlcNAc(b1-2)Man(a1-3)[GlcNAc(b1-4)][Neu5Ac(a2-6)Gal(b1-4)GlcNAc(b1-2)Man(a1-6)]Man(b1-4)GlcNAc(b1-4)GlcNAc
# Outline: as §1
binder,measurement,setting,value
"MSMEG3662-2a (Mycobacterium smegmatis), A0QYH7_MYCS2 (protein) MGDTLTAGQKLERGGSLQSGNGAYTLTLQDDGNLVLYARDKAVWSTGTNGQDVVRAEVQTDGNFVLYTAEKPVWHTDTKGKKEVKLVLQDDRNLVLYAKDGPAWSSKTDTTEPPPPAPEPEKEAEVAPAAAEEAAPAPVAEPAPAEPAPAAPPPAPPAPRTYTVVSGDTLWAIAERFYGDGSKYQQIADASGIANPDLIHPGQVLTIP",glycan array binding signal (z-score),[1],-0.194
same,glycan array binding signal (z-score),[2],-0.234
same,glycan array binding signal (z-score),[3],-0.138
same,glycan array binding signal (z-score),[4],-0.173
same,glycan array binding signal (z-score),[5],-0.169
same,glycan array binding signal (z-score),[6],-0.124
same,glycan array binding signal (z-score),[7],-0.056
same,glycan array binding signal (z-score),[8],-0.11
same,glycan array binding signal (z-score),[9],0.136
same,glycan array binding signal (z-score),[10],-0.044
same,glycan array binding signal (z-score),[11],0.43
same,glycan array binding signal (z-score),[12],-0.06
same,glycan array binding signal (z-score),[13],-0.189
same,glycan array binding signal (z-score),[14],-0.001
same,glycan array binding signal (z-score),[15],-0.121
same,glycan array binding signal (z-score),[16],-0.044
same,glycan array binding signal (z-score),Neu5Ac(a2-3)GalNAc,-0.06
same,glycan array binding signal (z-score),[17],-0.096
same,glycan array binding signal (z-score),[18],-0.219
same,glycan array binding signal (z-score),[19],-0.16
same,glycan array binding signal (z-score),[20],-0.025
same,glycan array binding signal (z-score),[21],-0.161
same,glycan array binding signal (z-score),Neu5Ac(a2-6)Gal,-0.121
same,glycan array binding signal (z-score),[22],-0.087
same,glycan array binding signal (z-score),Neu5Ac(a2-6)Gal(b1-4)Glc,-0.068
same,glycan array binding signal (z-score),[23],-0.128
same,glycan array binding signal (z-score),[24],-0.192
same,glycan array binding signal (z-score),[25],-0.194
same,glycan array binding signal (z-score),[26],-0.144
same,glycan array binding signal (z-score),[27],-0.06
same,glycan array binding signal (z-score),[28],-0.13
